Data published in PMC9728996.
Read-outs that look alike come from different tables or passages of the source. Results are given in words; binding and its absence hold for the method and conditions named. Binding seen in cells or lysates may run through a third protein. Some binding calls cover weakened binding; strength is not graded here. For part of these data: Sequences can lack the tags named with a protein. One block for each molecule: values may come before it.

Sequences of proteins named here, by UniProt entry; tags and fusion partners are left off. A change or cut given only in a name is not applied to a line headed by its entry. Residues count along the entry.
UniProt P0CAP2: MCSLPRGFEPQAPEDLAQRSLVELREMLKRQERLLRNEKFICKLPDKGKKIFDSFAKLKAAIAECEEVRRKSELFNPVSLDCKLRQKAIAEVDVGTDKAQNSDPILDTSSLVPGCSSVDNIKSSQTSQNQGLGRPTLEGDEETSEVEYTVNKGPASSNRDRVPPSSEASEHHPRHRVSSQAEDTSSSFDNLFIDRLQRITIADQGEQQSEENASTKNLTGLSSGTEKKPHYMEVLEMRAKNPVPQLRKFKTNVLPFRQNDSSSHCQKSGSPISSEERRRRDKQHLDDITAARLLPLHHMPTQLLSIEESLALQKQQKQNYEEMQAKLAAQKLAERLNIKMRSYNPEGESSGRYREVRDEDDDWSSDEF
Flag-VN-GDOWN1(m1), truncated mutant 1-110 aa: residues 1-110 of P0CAP2
Flag-VN-GDOWN1(m2), truncated mutant 111-250 aa: residues 111-250 of P0CAP2
Flag-VN-GDOWN1(m3), truncated mutant 251-368 aa: residues 251-368 of P0CAP2
UniProt O14980: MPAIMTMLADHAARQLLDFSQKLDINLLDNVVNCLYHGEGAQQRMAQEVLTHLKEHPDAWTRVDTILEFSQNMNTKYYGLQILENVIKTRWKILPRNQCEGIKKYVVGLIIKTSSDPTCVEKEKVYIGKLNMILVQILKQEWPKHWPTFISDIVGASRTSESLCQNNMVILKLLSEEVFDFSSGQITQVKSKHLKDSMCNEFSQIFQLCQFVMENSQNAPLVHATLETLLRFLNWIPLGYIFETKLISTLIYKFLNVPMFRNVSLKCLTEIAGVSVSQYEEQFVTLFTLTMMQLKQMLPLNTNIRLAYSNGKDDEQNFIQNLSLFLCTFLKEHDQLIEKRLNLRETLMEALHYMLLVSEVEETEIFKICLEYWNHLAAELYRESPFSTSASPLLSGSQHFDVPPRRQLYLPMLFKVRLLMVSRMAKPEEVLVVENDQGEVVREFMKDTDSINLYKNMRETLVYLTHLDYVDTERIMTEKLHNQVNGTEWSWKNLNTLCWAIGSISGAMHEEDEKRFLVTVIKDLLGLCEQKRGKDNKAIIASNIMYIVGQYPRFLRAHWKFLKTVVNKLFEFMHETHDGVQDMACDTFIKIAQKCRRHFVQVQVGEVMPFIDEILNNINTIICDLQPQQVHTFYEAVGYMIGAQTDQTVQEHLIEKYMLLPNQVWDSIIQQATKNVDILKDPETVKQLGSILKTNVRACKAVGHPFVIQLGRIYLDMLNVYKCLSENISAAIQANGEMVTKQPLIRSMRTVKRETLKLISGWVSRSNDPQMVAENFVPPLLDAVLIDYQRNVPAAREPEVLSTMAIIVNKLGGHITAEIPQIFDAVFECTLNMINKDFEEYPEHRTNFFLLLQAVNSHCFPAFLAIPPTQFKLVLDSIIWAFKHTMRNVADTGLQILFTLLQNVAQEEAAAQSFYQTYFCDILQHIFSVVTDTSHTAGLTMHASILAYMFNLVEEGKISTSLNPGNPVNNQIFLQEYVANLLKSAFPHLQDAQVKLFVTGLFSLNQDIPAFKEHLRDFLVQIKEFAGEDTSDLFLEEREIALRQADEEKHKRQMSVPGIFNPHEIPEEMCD

Tests used:
[1] = target: GDOWN1-Venus-Flag (wild type) (human) (UniProt P0CAP2); test: co-IP; lysate of HeLa cells stably expressing GDOWN1(WT or mCAS)-Venus-Flag (20 mM Tris-HCl pH 8.0, 150 mM NaCl, 1% NP40, 1% Triton X-100) on anti-Flag magnetic beads 12 hr at 4 C, five washes with lysis buffer, Western blot; IgG or parental HeLa cells as control
[2] = target: Flag-YC-GDOWN1 (human GDOWN1, wild type, BiFC fusion) (human) (UniProt P0CAP2); test: split reporter; BiFC in HeLa cells co-transfected with one Flag-VN (Venus 1-172) and one Flag-YC (YFP 173-238) plasmid, 0.25 ug each per well; fixed 24 hr post transfection, confocal microscopy; in some panels mock or 20 nM LMB for 6 hr
[3] = target: Flag-VN-GDOWN1 (human GDOWN1, wild type, BiFC fusion) (human) (UniProt P0CAP2); test: as above
[4] = target: Flag-VN-GDOWN1(m1), truncated mutant 1-110 aa (human) (UniProt P0CAP2); test: as above
[5] = target: Flag-VN-GDOWN1(m2), truncated mutant 111-250 aa (human) (UniProt P0CAP2); test: as above
[6] = target: Flag-VN-GDOWN1(m3), truncated mutant 251-368 aa (human) (UniProt P0CAP2); test: as above
[7] = target: T1, Flag-VN-zGdown1 (wild type Gdown1 of Danio rerio) (Danio rerio) (UniProt F1Q864); test: as above
T1 sequence: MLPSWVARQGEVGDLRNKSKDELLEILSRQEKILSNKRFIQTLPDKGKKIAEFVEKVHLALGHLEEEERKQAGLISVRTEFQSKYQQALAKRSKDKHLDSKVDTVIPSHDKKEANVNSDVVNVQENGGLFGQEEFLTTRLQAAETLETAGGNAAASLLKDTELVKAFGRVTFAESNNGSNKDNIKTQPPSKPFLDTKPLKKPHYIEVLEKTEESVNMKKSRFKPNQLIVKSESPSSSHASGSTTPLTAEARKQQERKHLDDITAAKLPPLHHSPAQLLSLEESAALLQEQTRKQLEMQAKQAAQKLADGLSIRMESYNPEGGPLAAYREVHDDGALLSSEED

[8] = target: T2, Flag-VN-zGdown1(R328A, H331A) (zebrafish Gdown1 CAS mutant) (Danio rerio) (UniProt F1Q864); test: as above
T2 sequence: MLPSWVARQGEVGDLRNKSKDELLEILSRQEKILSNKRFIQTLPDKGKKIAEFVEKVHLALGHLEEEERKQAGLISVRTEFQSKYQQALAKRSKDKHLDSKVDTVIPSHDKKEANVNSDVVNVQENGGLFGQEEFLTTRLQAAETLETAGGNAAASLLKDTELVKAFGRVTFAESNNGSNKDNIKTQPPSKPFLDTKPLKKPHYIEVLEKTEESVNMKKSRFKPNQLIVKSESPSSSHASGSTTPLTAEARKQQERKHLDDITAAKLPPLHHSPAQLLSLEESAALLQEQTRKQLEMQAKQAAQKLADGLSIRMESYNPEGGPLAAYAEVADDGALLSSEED

[9] = target: Flag-VN-GDOWN1 (human GDOWN1, wild type, BiFC fusion) (human) (UniProt P0CAP2); test: as above; remark: listed apart in the source
[10] = target: Flag-VN-GDOWN1(m11) (CAS mutant, BiFC fusion) (human) (UniProt P0CAP2); test: as above

binding [9]: binds
B1: Flag-YC-RPRD1A (protein, UniProt Q96P16-1 1-312)
chain: MSAFSEAALEKKLSELSNSQQSVQTLSLWLIHHRKHSRPIVTVWERELRKAKPNRKLTFLYLANDVIQNSKRKGPEFTKDFAPVIVEAFKHVSSETDESCKKHLGRVLSIWEERSVYENDVLEQLKQALYGDKKPRKRTYEQIKVDENENCSSLGSPSEPPQTLDLVRALQDLENAASGDAAVHQRIASLPVEVQEVSLLDKITDKESGERLSKMVEDACMLLADYNGRLAAEIDDRKQLTRMLADFLRCQKEALAEKEHKLEEYKRKLARVSLVRKELRSRIQSLPDLSRLPNVTGSHMHLPFAGDIYSED

binding [9]: binds
B2: Flag-YC-RAE1 (protein, UniProt P78406 1-368)
chain: MSLFGTTSGFGTSGTSMFGSATTDNHNPMKDIEVTSSPDDSIGCLSFSPPTLPGNFLIAGSWANDVRCWEVQDSGQTIPKAQQMHTGPVLDVCWSDDGSKVFTASCDKTAKMWDLSSNQAIQIAQHDAPVKTIHWIKAPNYSCVMTGSWDKTLKFWDTRSSNPMMVLQLPERCYCADVIYPMAVVATAERGLIVYQLENQPSEFRRIESPLKHQHRCVAIFKDKQNKPTGFALGSIEGRVAIHYINPPNPAKDNFTFKCHRSNGTNTSAPQDIYAVNGIAFHPVHGTLATVGSDGRFSFWDKDARTKLKTSEQLDQPISACCFNHNGNIFAYASSYDWSKGHEFYNPQKKNYIFLRNAAEELKPRNKK

binding [9]: binds
B3: Flag-YC-RPRD1B (protein, UniProt Q9NQG5 1-326)
chain: MSSFSESALEKKLSELSNSQQSVQTLSLWLIHHRKHAGPIVSVWHRELRKAKSNRKLTFLYLANDVIQNSKRKGPEFTREFESVLVDAFSHVAREADEGCKKPLERLLNIWQERSVYGGEFIQQLKLSMEDSKSPPPKATEEKKSLKRTFQQIQEEEDDDYPGSYSPQDPSAGPLLTEELIKALQDLENAASGDATVRQKIASLPQEVQDVSLLEKITDKEAAERLSKTVDEACLLLAEYNGRLAAELEDRRQLARMLVEYTQNQKDVLSEKEKKLEEYKQKLARVTQVRKELKSHIQSLPDLSLLPNVTGGLAPLPSAGDLFSTD

binding [9]: binds weakly | binding [10]: binds
B5: Flag-YC-NUP50 (protein, UniProt Q9UKX7 1-468)
chain: MAKRNAEKELTDRNWDQEDEAEEVGTFSMASEEVLKNRAIKKAKRRNVGFESDTGGAFKGFKGLVVPSGGGRFSGFGSGAGGKPLEGLSNGNNITSAPPFASAKAAADPKVAFGSLAANGPTTLVDKVSNPKTNGDSQQPSSSGLASSKACVGNAYHKQLAALNCSVRDWIVKHVNTNPLCDLTPIFKDYEKYLANIEQQHGNSGRNSESESNKVAAETQSPSLFGSTKLQQESTFLFHGNKTEDTPDKKMEVASEKKTDPSSLGATSASFNFGKKVDSSVLGSLSSVPLTGFSFSPGNSSLFGKDTTQSKPVSSPFPTKPLEGQAEGDSGECKGGDEEENDEPPKVVVTEVKEEDAFYSKKCKLFYKKDNEFKEKGIGTLHLKPTANQKTQLLVRADTNLGNILLNVLIPPNMPCTRTGKNNVLIVCVPNPPIDEKNATMPVTMLIRVKTSEDADELHKILLEKKDA

The remaining lines, values behind:

Molecule: CRM1 (endogenous) (from UniProt O14980 1-1071)
binding [1]: binds

Molecule: Flag-VN-CRM1 (from UniProt O14980 1-1071)
binding [2]: binds

Molecule: Flag-YC-MED1 (from UniProt Q15648-1 1-1581)
binding [3]: no binding

Molecule: Flag-YC-NELF-E (from UniProt P18615-1 1-380)
binding [3]: binds | binding [4]: binds | binding [5]: binds | binding [6]: binds | binding [7]: binds | binding [8]: binds

B4: Flag-YC-MED26 (protein, UniProt O95402-1 1-600)
chain: MTAAPASPQQIRDRLLQAIDPQSNIRNMVAVLEVISSLEKYPITKEALEETRLGKLINDVRKKTKNEELAKRAKKLLRSWQKLIEPAHQHEAALRGLAGATGSANGGAHNCRPEVGAAGPPRSIHDLKSRNDLQRLPGQRLDRLGSRKRRGDQRDLGHPGPPPKVSKASHDPLVPNSSPLPTNGISGSPESFASSLDGSGHAGPEGSRLERDENDKHSGKIPVNAVRPHTSSPGLGKPPGPCLQPKASVLQQLDRVDETPGPPHPKGPPRCSFSPRNSRHEGSFARQQSLYAPKGSVPSPSPRPQALDATQVPSPLPLAQPSTPPVRRLELLPSAESPVCWLEQPESHQRLAGPGCKAGLSPAEPLLSRAGFSPDSSKADSDAASSGGSDSKKKKRYRPRDYTVNLDGQVAEAGVKPVRLKERKLTFDPMTRQIKPLTQKEPVRADSPVHMEQQSRTELDKQEAKASLQSPFEQTNWKELSRNEIIQSYLSRQSSLLSSSGAQTPGAHHFMSEYLKQEESTRQGARQLHVLVPQSPPTDLPGLTREVTQDDLDRIQASQWPGVNGCQDTQGNWYDWTQCISLDPHGDDGRLNILPYVCLD
binding [9]: no binding
